Reference: the supplement of paper PMC3334620
In all, about 33,000 sequences were measured (“E-score (-0.5 to 0.5)”: median about -0.053, highest 2% from about 0.37 on). The list shows a part of the results.

The sequences below were run against Hap1 (UniProt P0CE41) (assay: PBM E-score (8-mer binding enrichment) (E-score (-0.5 to 0.5)); higher = stronger / more preferred TF binding; most listed sequences are background and not binding sites). Conditions: protein concentration: 200 nM; construct: GST-DNA-binding domain.
Method in brief: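 For each ungapped eight-base word taken together with its reverse complement, the Universal PBM Analysis Suite assigned an E-score. Binding data came from GST-tagged yeast transcription factors, applied at about 100-200 nM, on universal all-10-mer Agilent arrays made double-stranded by primer extension. Fluorescent anti-GST marked bound protein, and scans were normalised with masliner.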

UniProt P0CE41, sequence (P0CE41 whole entry, the tested form may be a part): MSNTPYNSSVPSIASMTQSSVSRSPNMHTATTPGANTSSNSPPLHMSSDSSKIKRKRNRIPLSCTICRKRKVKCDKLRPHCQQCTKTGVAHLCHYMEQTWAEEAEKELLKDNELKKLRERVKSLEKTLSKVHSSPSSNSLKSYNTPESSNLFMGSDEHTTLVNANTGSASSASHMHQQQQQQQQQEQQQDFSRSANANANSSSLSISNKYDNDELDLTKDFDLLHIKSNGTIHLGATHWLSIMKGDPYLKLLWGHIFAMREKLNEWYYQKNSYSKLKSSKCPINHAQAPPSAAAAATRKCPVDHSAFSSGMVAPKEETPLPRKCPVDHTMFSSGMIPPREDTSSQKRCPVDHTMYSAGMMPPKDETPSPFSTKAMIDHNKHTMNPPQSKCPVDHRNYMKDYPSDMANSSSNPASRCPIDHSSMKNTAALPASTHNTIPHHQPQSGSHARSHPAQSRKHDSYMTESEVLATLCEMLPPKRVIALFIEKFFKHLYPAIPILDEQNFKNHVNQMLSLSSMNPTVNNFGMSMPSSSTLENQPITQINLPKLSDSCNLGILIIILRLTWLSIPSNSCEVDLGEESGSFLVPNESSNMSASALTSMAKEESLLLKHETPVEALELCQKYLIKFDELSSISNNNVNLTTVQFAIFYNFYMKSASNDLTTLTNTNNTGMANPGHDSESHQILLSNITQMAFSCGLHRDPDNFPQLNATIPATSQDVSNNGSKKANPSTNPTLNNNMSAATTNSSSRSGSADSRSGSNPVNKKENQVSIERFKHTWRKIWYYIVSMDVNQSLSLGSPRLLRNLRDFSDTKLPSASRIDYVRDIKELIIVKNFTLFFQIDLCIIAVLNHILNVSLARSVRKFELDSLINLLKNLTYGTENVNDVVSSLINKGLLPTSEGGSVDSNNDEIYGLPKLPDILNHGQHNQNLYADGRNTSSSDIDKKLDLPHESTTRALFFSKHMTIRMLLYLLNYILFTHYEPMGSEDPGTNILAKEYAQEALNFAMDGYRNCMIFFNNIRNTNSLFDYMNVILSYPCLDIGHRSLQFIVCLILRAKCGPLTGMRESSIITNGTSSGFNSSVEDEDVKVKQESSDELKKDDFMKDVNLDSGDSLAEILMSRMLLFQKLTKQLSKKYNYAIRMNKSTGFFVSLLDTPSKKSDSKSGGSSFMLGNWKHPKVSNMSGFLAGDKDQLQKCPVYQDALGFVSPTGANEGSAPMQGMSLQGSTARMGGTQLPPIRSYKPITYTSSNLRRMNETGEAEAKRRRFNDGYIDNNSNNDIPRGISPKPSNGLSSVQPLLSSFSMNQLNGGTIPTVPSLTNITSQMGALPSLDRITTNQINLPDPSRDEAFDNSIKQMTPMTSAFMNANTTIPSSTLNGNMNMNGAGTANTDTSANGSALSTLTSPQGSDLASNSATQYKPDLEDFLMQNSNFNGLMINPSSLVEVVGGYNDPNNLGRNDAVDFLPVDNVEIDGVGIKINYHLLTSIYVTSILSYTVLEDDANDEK

Sequence	PBM E-score
ATACGCCA	-0.0482
CACGCCCA	-0.202
CGGCGGGA	0.338
AAGGAATA	-0.00042
GCATGTCA	-0.0466
CGTCGAAA	0.104
GCTTCAAC	-0.0828
CCCTCCGG	0.331
GGCCGAAC	0.37
ACTAAGAC	-0.184
GTTCGCGA	0.0847
GAGCCGCC	0.222
CTGTCCCA	-0.242
CTCGTCAA	-0.232
ACCGAGAC	0.28
AGTTATAC	0.061
CCTCAGCC	-0.0983
GGTCAACC	0.00435
GAGAGCAA	-0.131
AGCTTTAA	-0.0888
GAATCGTA	-0.0869
AGATTACA	0.0437
GCTAAACC	0.0775
ATTGGACC	0.161
CTCACCAA	-0.0619

Sequence	PBM E-score
ACGTGCGA	-0.0628
ATGGAATC	-0.00395
CAGCACCC	-0.155
GCTGGCAC	-0.221
ATTTGTCC	0.228
ATCAAGAG	-0.172
GCCCTAAC	0.117
AAGGACTG	-0.275
GTTCCCGA	0.257
CTCATGGC	0.0536
TAGCTATA	-0.146
AACCGCAA	0.199
GTCTCTAA	-0.157
CCAAAGCC	0.0357
CCGTCTAG	0.101
ACACAGTC	0.0224
CTGATGCC	0.0435
CTTTCTCC	0.165
CTAATCAC	0.209
ACTACATA	-0.249
ATGTATAC	0.00845
CATTGATC	-0.0242
GAACTTTA	0.0817
CGGGCCTA	0.383
GACGAGCC	-0.211

Sequence	PBM E-score
CGGCCACA	0.235
GCATGCTA	-0.134
ACGACCCA	-0.136
GTATACGA	-0.0696
AATGAACA	-0.111
CAAAAGGC	-0.065
TTAAACAA	-0.0739
CATCCGGG	0.278
CATTTTCC	0.0275
GGCACGCC	-0.0738
ATCCCGCC	0.162
ACCACAGG	-0.164
GGCTATAA	0.13
AGATAGAT	-0.296
ATCCTTAG	-0.165
ATCTCACG	0.0714
AACCTCAT	-0.141
GCAACAGA	-0.0259
ATGAATGG	0.0779
CGCAATTC	0.111
ACGCGTAA	-0.0172
AGGCTCAA	-0.18
ACCCGGAT	0.322
CGGACCAG	0.304
ACACGGCG	0.119

Sequence	PBM E-score
CAAAGCGC	0.139
TCGCACCA	-0.0261
GAGATTAC	0.126
CGCACGGA	0.336
CGGTCGCC	0.22
CTACACCC	0.0196
GCGGCCAC	0.0835
CGGTATCC	0.269
ACCACACT	-0.0326
TTACCCAA	-0.225
CTGAGGGC	-0.243
ATAAATAT	0.174
TAGCTTGA	-0.226
TAGTGCGA	-0.185
CCCTCGCG	0.138
GACGAAGA	-0.0559
ATAATTGA	-0.0207
ATCCCTCC	0.0388
CGTGTAAC	-0.0381
AGTGAGAA	-0.0436
GCTCGCTA	-0.00683
AGTACCAT	-0.18
ATAGGAGG	-0.0287
TGGAATAA	-0.128
ATTATGCC	0.154

Sequence	PBM E-score
AGCTACCC	-0.159
CAGACATG	-0.204
CGACCGTC	-0.0224
ACAACCGA	0.296
AATTCACT	-0.162
AGCGCGCG	0.14
AAACCTCG	0.1
ACAGTCCT	-0.306
ATTGAAGA	-0.255
ATCCTCAC	-0.103
CTGATAAC	-0.0581
ATCTAAAA	-0.105
AATTTTTC	0.0506
CGCACTCC	-0.128
ACCCGAAT	0.314
ACTGACTG	-0.282
TAATACTA	-0.0683
AACGGACA	0.369
CCTAATGC	-0.232
ACGGAGCC	0.254
AGGCGTAC	-0.113
GACTTAGC	0.0908
ACTTGTAG	-0.161
ACCTCGGC	0.377
ACAGTGCC	0.106

Sequence	PBM E-score
GAAAATTC	0.15
TCCTCGAA	-0.188
ATCCGCAC	0.21
CACAATCA	-0.069
GGATACAC	0.132
AGACGCAT	0.00478
CCATAAAG	-0.12
ATCTTGCC	0.0264
GAACCGCC	0.0491
TCCCCGGA	0.377
CTAGTTTC	0.0722
CGTTCGCC	0.189
CAGGGGAA	-0.136
CGTAAGGC	-0.143
AAGTCTTA	-0.172
GTAACAAC	-0.1
GCTAACAA	-0.165
GGCGTGCA	0.00368
GTGCATGA	-0.177
ACCATAGA	-0.102
CTCATCGC	-0.0114
CGTCGATC	0.00791
CTAACAAA	-0.302
TACACACA	-0.211
AACCAGTA	0.0156

Sequence	PBM E-score
AAACTGAT	-0.146
CACACCTG	-0.192
ATAATGAG	-0.148
GCCTACCA	-0.193
AGGCACGG	0.135
CTCAGTTC	-0.241
GCATAGTA	-0.0876
AAGACGTG	-0.0656
AGATTGAT	-0.121
GCCGTCTA	0.123
CATGTTGA	0.0709
CCATGCTA	-0.201
ATCTGTCG	0.138
TCTTCAAA	-0.0563
ATCCCTTA	0.00474
GACGTTAC	-0.0145
GTCTGGAA	-0.27
AAGGAGCG	-0.136
AGGGTACC	-0.202
GCGACATA	-0.153
AATTCACC	0.129
GATATCCC	0.291
